# Source: the supplement of paper PMC10037445
# Whole data set: some 2,900 compounds, median “IRF Lucia reporter activity, fold change vs agonist alone” near 0.9, cut for the highest 2% near 2.8. This is one part of the list.
# Experiments:
# [1] = test system: RAW-Dual; assay: IRF Lucia reporter activity, fold change vs agonist alone; higher = enhanced IRF activity; settings: library stock concentration (final ~1000-fold dilution): 10 mM, agonist: MPLA (TLR4) […]
# Summary of the method: (§1)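 RAW-Dual macrophages (50,000 cells/well in DMEM, 384-well plates) received 50 nL of library stock by pin tool, then a PRR agonist 1 h later, and were kept at 37 °C, 5% CO2. After 20 hours, supernatant was read for IRF by QuantiLuc luminescence and for NF-κB by QuantiBlue absorbance at 620 nm. Reporter activity is fold change over agonist-alone wells. Cytotoxic wells had IncuCyte confluency below 70% of agonist controls in both mask sets.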
# [2] = test system: RAW-Dual; assay: IRF Lucia reporter activity, fold change vs agonist alone; cytotoxicity flag (confluency mask): not cytotoxic; higher = enhanced IRF activity
# Summary of the method: as §1
# [3] = test system: RAW-Dual; assay: IRF Lucia reporter activity, fold change vs agonist alone; cytotoxicity flag (confluency mask): cytotoxic (confluency <70% of control); higher = enhanced IRF activity
# Summary of the method: as §1
# [4] = cytotoxicity flag (confluency mask): not cytotoxic
# [5] = agonist: 3'3'-cGAMP (STING) 10 ug/mL
# [6] = cytotoxicity flag (confluency mask): cytotoxic (confluency <70% of control)
smiles,measurement,setting,value
CC1CCN(CCC2CCCN2S(=O)(=O)c2cccc(O)c2)CC1.Cl (stereo unspecified),IRF Lucia reporter activity,[1]; [4],1.05
CC1CCN(CCC2CCCN2S(=O)(=O)c2cccc(O)c2)CC1.Cl (stereo unspecified) (library stock concentration (final ~1000-fold dilution): 10 mM),IRF Lucia reporter activity,[2]; [5],1.07
same,IRF Lucia reporter activity,[2]; agonist: LPS (TLR4) 0.1 ug/mL,1.07
COc1cc(Nc2nc3ccccc3nc2NS(=O)(=O)c2ccc(NC(=O)c3ccc(C)c(OC)c3)cc2)cc(OC)c1 (library stock concentration (final ~1000-fold dilution): 10 mM),IRF Lucia reporter activity,[2]; [5],1.01
same,IRF Lucia reporter activity,[2]; agonist: LPS (TLR4) 0.1 ug/mL,0.958
COc1cc(Nc2nc3ccccc3nc2NS(=O)(=O)c2ccc(NC(=O)c3ccc(C)c(OC)c3)cc2)cc(OC)c1,IRF Lucia reporter activity,[1]; [4],0.756
O=C1CCc2cc(OCCCCc3nnnn3C3CCCCC3)ccc2N1,IRF Lucia reporter activity,[1]; [4],0.939
O=C1CCc2cc(OCCCCc3nnnn3C3CCCCC3)ccc2N1 (library stock concentration (final ~1000-fold dilution): 10 mM),IRF Lucia reporter activity,[2]; [5],1.05
same,IRF Lucia reporter activity,[2]; agonist: LPS (TLR4) 0.1 ug/mL,0.84
CN1C2=C3N=c4ccccc4=C3CCN2C(=O)c2ccccc21.Cl,IRF Lucia reporter activity,[1]; [4],1.19
CN1C2=C3N=c4ccccc4=C3CCN2C(=O)c2ccccc21.Cl (library stock concentration (final ~1000-fold dilution): 10 mM),IRF Lucia reporter activity,[2]; [5],1.19
same,IRF Lucia reporter activity,[2]; agonist: LPS (TLR4) 0.1 ug/mL,1.32
Cc1ccc2c(c1)c1c(n2CCc2ccc(C)nc2)CCN(C)C1.Cl.Cl (library stock concentration (final ~1000-fold dilution): 10 mM),IRF Lucia reporter activity,[2]; [5],0.767
same,IRF Lucia reporter activity,[2]; agonist: LPS (TLR4) 0.1 ug/mL,1.39
Cc1ccc2c(c1)c1c(n2CCc2ccc(C)nc2)CCN(C)C1.Cl.Cl,IRF Lucia reporter activity,[1]; [4],0.966
COc1cc(OC)cc(-c2cc3cnc(N)nc3nc2NC(=O)NC(C)(C)C)c1 (library stock concentration (final ~1000-fold dilution): 10 mM),IRF Lucia reporter activity,[2]; [5],0.693
same,IRF Lucia reporter activity,[2]; agonist: LPS (TLR4) 0.1 ug/mL,0.628
Nc1ncnc2c1c(-c1cnc3[nH]ccc3c1)nn2C1CCCC1 (library stock concentration (final ~1000-fold dilution): 10 mM),IRF Lucia reporter activity,[2]; [5],1.06
same,IRF Lucia reporter activity,[2]; agonist: LPS (TLR4) 0.1 ug/mL,0.32
Nc1ncnc2c1c(-c1cnc3[nH]ccc3c1)nn2C1CCCC1,IRF Lucia reporter activity,[1]; [4],1.04
COc1ccc(C(=O)C2CCN(CC(=O)N(Cc3nc4c(c(=O)[nH]3)COCC4)CC3CC3)CC2)cc1 (library stock concentration (final ~1000-fold dilution): 10 mM),IRF Lucia reporter activity,[2]; [5],1.17
same,IRF Lucia reporter activity,[2]; agonist: LPS (TLR4) 0.1 ug/mL,1.25
COc1ccc(C(=O)C2CCN(CC(=O)N(Cc3nc4c(c(=O)[nH]3)COCC4)CC3CC3)CC2)cc1,IRF Lucia reporter activity,[1]; [4],1.16
CCCCc1nc(C)c(CC(=S)N(C)C)c(=O)n1Cc1ccc(-c2ccccc2-c2nnn[nH]2)cc1,IRF Lucia reporter activity,[1]; [4],1.18
CCCCc1nc(C)c(CC(=S)N(C)C)c(=O)n1Cc1ccc(-c2ccccc2-c2nnn[nH]2)cc1 (library stock concentration (final ~1000-fold dilution): 10 mM),IRF Lucia reporter activity,[2]; [5],0.998
same,IRF Lucia reporter activity,[2]; agonist: LPS (TLR4) 0.1 ug/mL,0.946
COc1ccc(CN2CCN(C(c3ccc(F)cc3)c3ccc(F)cc3)CC2)c(OC)c1OC.Cl.Cl (library stock concentration (final ~1000-fold dilution): 10 mM),IRF Lucia reporter activity,[2]; [5],0.288
same,IRF Lucia reporter activity,[2]; agonist: LPS (TLR4) 0.1 ug/mL,2.33
COc1ccc(CN2CCN(C(c3ccc(F)cc3)c3ccc(F)cc3)CC2)c(OC)c1OC.Cl.Cl,IRF Lucia reporter activity,[1]; [4],2.06
CN(C)CC/C=C1/c2ccccc2Sc2ccc(Cl)cc21.Cl (library stock concentration (final ~1000-fold dilution): 10 mM),IRF Lucia reporter activity,[3]; [5],0.955
same,IRF Lucia reporter activity,[3]; agonist: LPS (TLR4) 0.1 ug/mL,2.08
CN(C)CC/C=C1/c2ccccc2Sc2ccc(Cl)cc21.Cl,IRF Lucia reporter activity,[1]; [6],1.89
O=C1Nc2ccc(Cl)cc2C(C#CC2CC2)(C(F)(F)F)O1 (stereo unspecified),IRF Lucia reporter activity,[1]; [6],1.07
O=C1Nc2ccc(Cl)cc2C(C#CC2CC2)(C(F)(F)F)O1 (stereo unspecified) (library stock concentration (final ~1000-fold dilution): 10 mM),IRF Lucia reporter activity,[3]; [5],0.956
same,IRF Lucia reporter activity,[3]; agonist: LPS (TLR4) 0.1 ug/mL,1.22
CCCSc1nc(NC2CC2c2ccc(F)c(F)c2)c2nnn(C3CC(OCCO)C(O)C3O)c2n1 (stereo unspecified),IRF Lucia reporter activity,[1]; [6],0.845
CCCSc1nc(NC2CC2c2ccc(F)c(F)c2)c2nnn(C3CC(OCCO)C(O)C3O)c2n1 (stereo unspecified) (library stock concentration (final ~1000-fold dilution): 10 mM),IRF Lucia reporter activity,[3]; [5],0.711
same,IRF Lucia reporter activity,[3]; agonist: LPS (TLR4) 0.1 ug/mL,0.762
CN(C)c1ccc(O)c2c1CC1CC3C(N(C)C)C(=O)C(C(N)=O)=C(O)C3(O)C(=O)C1=C2O (stereo unspecified) (library stock concentration (final ~1000-fold dilution): 5 mM),IRF Lucia reporter activity,[2]; [5],0.71
same,IRF Lucia reporter activity,[2]; agonist: LPS (TLR4) 0.1 ug/mL,0.397
CNc1ccc([N+](=O)[O-])cc1-n1cnc(-c2ccc(C(F)(F)F)cc2)c1 (library stock concentration (final ~1000-fold dilution): 10 mM),IRF Lucia reporter activity,[2]; [5],1.42
same,IRF Lucia reporter activity,[2]; agonist: LPS (TLR4) 0.1 ug/mL,1.1
CN(C)Cc1ccc(-c2nc3cccc4c3n2CCNC4=O)cc1,IRF Lucia reporter activity,[1]; [4],0.213
CN(C)Cc1ccc(-c2nc3cccc4c3n2CCNC4=O)cc1 (library stock concentration (final ~1000-fold dilution): 10 mM),IRF Lucia reporter activity,[2]; [5],0.869
same,IRF Lucia reporter activity,[2]; agonist: LPS (TLR4) 0.1 ug/mL,0.3
Cl.O=C(NC1CCNCC1)c1n[nH]cc1NC(=O)c1c(Cl)cccc1Cl (library stock concentration (final ~1000-fold dilution): 10 mM),IRF Lucia reporter activity,[3]; [5],0.0898
same,IRF Lucia reporter activity,[3]; agonist: LPS (TLR4) 0.1 ug/mL,0.581
Cc1[nH]c(/C=C2\C(=O)Nc3ccc(S(=O)(=O)N(C)c4cccc(Cl)c4)cc32)c(C)c1C(=O)N1CCN(C)CC1 (library stock concentration (final ~1000-fold dilution): 10 mM),IRF Lucia reporter activity,[2]; [5],0.407
same,IRF Lucia reporter activity,[2]; agonist: LPS (TLR4) 0.1 ug/mL,0.628
Cc1[nH]c(/C=C2\C(=O)Nc3ccc(S(=O)(=O)N(C)c4cccc(Cl)c4)cc32)c(C)c1C(=O)N1CCN(C)CC1,IRF Lucia reporter activity,[1]; [4],0.525
CCCCCCc1ccc(O)cc1O,IRF Lucia reporter activity,[1]; [4],1.17
CCCCCCc1ccc(O)cc1O (library stock concentration (final ~1000-fold dilution): 10 mM),IRF Lucia reporter activity,[2]; [5],0.772
same,IRF Lucia reporter activity,[2]; agonist: LPS (TLR4) 0.1 ug/mL,1.02
CC1(C)NC(=O)N(c2ccc([N+](=O)[O-])c(C(F)(F)F)c2)C1=O,IRF Lucia reporter activity,[1]; [4],1.09
CC1(C)NC(=O)N(c2ccc([N+](=O)[O-])c(C(F)(F)F)c2)C1=O (library stock concentration (final ~1000-fold dilution): 10 mM),IRF Lucia reporter activity,[2]; [5],1.02
same,IRF Lucia reporter activity,[2]; agonist: LPS (TLR4) 0.1 ug/mL,1.53
